# Test results reported in the supplement of paper PMC9446081.
# The whole screen tested about 39,000 compounds, of which about 220 (0.56%) showed activity. This is one part of the list.
# System: Escherichia coli K-12 BW25113
# Assay: relative growth (OD600 normalised to plate interquartile mean) (fraction); higher = less growth inhibition, active = 0.2 or less
# Settings: 50 µM; LB; incubation time: overnight (16-24 h)
# 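Note: static incubation at 37 °C against the wild-type strain, values averaged over two biological replicates.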
row,SMILES,relative growth
1,O=C(O)CCNC(=O)c1cncc(O)c1,inactive: 1.01
2,CC1=NNc2nc3c(c(=O)n(C)c(=O)n3C)n2C1,inactive: 0.983
3,O=C(O)[C@H]1[C@H](CO)[C@H]2Cn3c(ccc(-c4cncnc4)c3=O)[C@H]2N1C(=O)C1CCC1,inactive: 1
4,C[C@H](CO)N1C[C@H](C)[C@@H](CN(C)C(=O)Nc2ccc(C(F)(F)F)cc2)Oc2ncc(C#C[C@@H](C)O)cc2C1=O,inactive: 1.02
5,C[C@@H]1CN([C@@H](C)CO)C(=O)Cc2cc(NC(=O)c3ccncc3)ccc2O[C@@H]1CN(C)Cc1ccc(-c2ccccc2)cc1,inactive: 0.971
6,COc1cccc(NC(=O)N[C@@H]2CC[C@@H](CC(=O)N3CCN(C)CC3)O[C@@H]2CO)c1,inactive: 1.04
7,C[C@@H]1CN([C@H](C)CO)C(=O)Cc2cc(NS(=O)(=O)c3ccc(Cl)cc3)ccc2O[C@@H]1CN(C)C,inactive: 0.994
8,Cc1noc(C)c1S(=O)(=O)Nc1cccc2c1O[C@H](CN(C)S(=O)(=O)c1cn(C)cn1)[C@H](C)CN([C@@H](C)CO)C2=O,inactive: 0.983
9,CO[C@@H]1CN(C)C(=O)c2ccc(NC(=O)NC(C)C)cc2OC[C@@H](C)N(Cc2ccc(-c3ccccn3)cc2)C[C@H]1C,inactive: 1.01
10,C[C@@H]1CCCCO[C@H](CN(C)S(=O)(=O)c2ccc(Cl)cc2)[C@H](C)CN([C@H](C)CO)C(=O)c2cc(NS(=O)(=O)c3ccc(Cl)cc3)ccc2O1,inactive: 0.978
11,CC(C)NC(=O)N(C)C[C@H]1Oc2ccc(NS(=O)(=O)c3cn(C)cn3)cc2CC(=O)N([C@H](C)CO)C[C@@H]1C,inactive: 1.01
12,Nc1c2c(nc3ccccc13)CCCC2,inactive: 0.985
13,O=c1[nH]c(=O)n([C@H]2C[C@H](O)[C@@H](CO)O2)cc1C(F)(F)F,inactive: 0.53
14,CO[C@H](CN(C)C(=O)Nc1ccc(C(F)(F)F)cc1)[C@@H](C)CN(Cc1ccccc1Cl)[C@H](C)CO,inactive: 0.993
15,CCCCC(CC)COC(=O)C(C#N)=C(c1ccccc1)c1ccccc1 (stereo unspecified),inactive: 1.03
16,CCC(CCC(C)C1CCC2C3CC=C4CC(O)CCC4(C)C3CCC12C)C(C)C (stereo not drawn) [beta-SITOSTEROL],inactive: 0.969
17,COc1ccc([Si](C)(C)[C@@H]2[C@@H](CCOC(=O)NCCCCCC(=O)NO)O[C@@]3(C(=O)N(Cc4ccccc4)c4ccc(NC(=O)[C@@H](C)OC(=O)NCCCCCC(=O)NO)cc43)[C@H]2C)cc1,inactive: 1
18,C[C@H]1CN([C@@H](C)CO)S(=O)(=O)c2ccc(-c3ccc(F)cc3)cc2O[C@@H]1CN(C)C(=O)C1CCOCC1,inactive: 0.972
19,C[C@@H]1CN([C@H](C)CO)C(=O)c2cc(NC(=O)Nc3ccccc3)ccc2O[C@@H]1CN(C)C(=O)Nc1cccc2ccccc12,inactive: 1.02

row,SMILES,relative growth
1,C[C@H](NC(=O)N(C)C[C@H]1OCc2ccccc2-c2c(n(C)c3ccccc23)C(=O)N([C@@H](C)CO)C[C@@H]1C)c1ccccc1,inactive: 0.996
2,C[C@@H]1CCCCO[C@@H](CN(C)C(=O)c2ccccc2)[C@@H](C)CN([C@@H](C)CO)C(=O)c2cc(NC(=O)c3ccccc3)ccc2O1,inactive: 0.999
3,CCS(=O)(=O)N[C@@H]1C=C[C@H](CC(=O)NCc2ccccn2)O[C@@H]1CO,inactive: 0.999
4,CC12CC(OC1=O)C1(C)CCC3(C)C(=CCC4C5(C)CCC(O)C(C)(C)C5CCC43C)C1C2 (stereo unspecified),inactive: 1.03
5,C[C@@H]1CN([C@H](C)CO)C(=O)c2cc(NS(=O)(=O)c3ccccc3)ccc2O[C@H]1CN(C)S(=O)(=O)c1ccccc1,inactive: 1.03
6,C[C@H](CO)N1C[C@H](C)[C@@H](CN(C)S(=O)(=O)c2ccc(F)cc2)Oc2ccc(NS(=O)(=O)c3ccccc3)cc2C1=O,inactive: 0.937
7,Cc1noc(C)c1NC(=O)N(C)C[C@@H]1Oc2c(NC(=O)c3ccc(-c4nccs4)cc3)cccc2C(=O)N([C@H](C)CO)C[C@H]1C,inactive: 1.02
8,COc1ccc(NC(=O)N(C)C[C@H]2Oc3ncc(C#C[C@H](C)O)cc3C(=O)N([C@H](C)CO)C[C@H]2C)cc1,inactive: 1.01
9,C[C@@H]1CN([C@@H](C)CO)C(=O)c2cc(NC(=O)Cc3cn(C)c4ccccc34)ccc2O[C@H]1CN(C)Cc1ccc(C(=O)Nc2ccccc2N)cc1,inactive: 0.94
10,Cc1ccc(S(=O)(=O)N(C)C[C@H]2Oc3ccc(NS(C)(=O)=O)cc3C(=O)N([C@H](C)CO)C[C@H]2C)cc1,inactive: 1.01
11,Cc1noc(C)c1NC(=O)N(C)C[C@@H]1OCCCC[C@@H](C)Oc2ccc(NC(=O)Nc3ccccc3)cc2C(=O)N([C@@H](C)CO)C[C@@H]1C,inactive: 0.975
12,CCOC(=O)[C@H]1C/C=C/C[C@H](C(=O)OCC)C(=O)O[C@H]2[C@@H](OC)O[C@H](CO)[C@@H](OC(=O)c3c(OC)cccc3OC)[C@@H]2OC1=O,inactive: 1.01
13,C[C@H]1CN([C@@H](C)CO)C(=O)Cc2cc(NC(=O)Nc3ccccc3)ccc2O[C@H]1CN(C)Cc1ccc(C(=O)Nc2ccccc2N)cc1,inactive: 0.978
14,C[C@H](CO)N1C[C@H](C)[C@H](CN(C)Cc2ccc(-c3ccccc3)cc2)Oc2ccc(NC(=O)CCCCCC(=O)Nc3ccccc3N)cc2CC1=O,inactive: 1.03
15,Cc1[nH]c(=O)[nH]c(=O)c1S(=O)(=O)N1CCOCC1,inactive: 0.954
16,CC(C)CN1C(=O)[C@@]2(Cc3ccccc31)c1ccccc1C(=O)N(Cc1ccccc1)[C@H]2c1ccc(CO)cc1,inactive: 1.01
17,COc1ccc(NC(=O)Nc2ccc3c(c2)C(=O)N([C@@H](C)CO)C[C@H](C)[C@H](CN(C)Cc2ccccc2)OCCCC[C@@H](C)O3)cc1,inactive: 0.988
18,Cc1noc(C)c1S(=O)(=O)Nc1ccc2c(c1)CC(=O)N([C@H](C)CO)C[C@H](C)[C@H](CN(C)C(=O)Nc1ccc3c(c1)OCO3)O2,inactive: 0.867
19,Cc1ccc(S(=O)(=O)Nc2ccc3c(c2)C(=O)N([C@@H](C)CO)C[C@H](C)[C@@H](CN(C)Cc2ccc(Cl)c(Cl)c2)O3)cc1,inactive: 1.01

row,SMILES,relative growth
1,C[C@H](CO)N1C[C@H](C)[C@H](CN(C)C(=O)Cc2ccccc2)OCCCC[C@H](C)Oc2ccc(NC(=O)Nc3ccc(C(F)(F)F)cc3)cc2C1=O,inactive: 0.993
2,C[C@@H]1CN([C@H](C)CO)C(=O)Cc2cc(NC(=O)Nc3ccc4c(c3)OCO4)ccc2O[C@H]1CN(C)Cc1ccc(Cl)c(Cl)c1,inactive: 1.03
3,O=C(Nc1ccc(Cl)cc1C(=O)c1ccc(Cl)cc1)c1cc(Br)ccc1NS(=O)(=O)c1ccc(Cl)cc1,inactive: 1
4,COc1ccc(S(=O)(=O)Nc2ccc3c(c2)CC(=O)N([C@H](C)CO)C[C@H](C)[C@H](CN(C)S(C)(=O)=O)O3)cc1,inactive: 0.979
5,O=C(Cn1cnnn1)NC1C(=O)N2C(C(=O)O)=C(CSc3nncs3)CSC12 (stereo unspecified),active: 0.0457
6,C[C@H]1CN([C@@H](C)CO)C(=O)Cc2cc(NC(=O)Nc3ccc(C(F)(F)F)cc3)ccc2O[C@H]1CN(C)S(C)(=O)=O,inactive: 0.976
7,C[C@@H]1CN([C@@H](C)CO)C(=O)Cc2cc(NC(=O)CCN3CCOCC3)ccc2O[C@H]1CN(C)S(=O)(=O)c1cccs1,inactive: 1.05
8,COc1ccc(CN(C)C[C@@H]2Oc3ccc(NC(=O)Cn4cnnn4)cc3CC(=O)N([C@H](C)CO)C[C@H]2C)cc1,inactive: 0.981
9,C[C@@H]1CN([C@@H](C)CO)C(=O)c2cc(NC(=O)NC3CCCCC3)ccc2O[C@@H](C)CCCCO[C@@H]1CN(C)C(=O)c1ccccc1,inactive: 1.02
10,COCCCNC(=O)[C@@]1(Cc2ccccc2I)c2ccccc2C(=O)N(C2CCCCC2)[C@H]1c1ccc(CO)cc1,inactive: 1.02
11,COCCOC(=O)N1C(=O)[C@@]2(c3ccccc31)[C@H](C(=O)Nc1nc3ccccc3s1)[C@H]1C(=O)O[C@H](c3ccccc3)[C@H](c3ccccc3)N1[C@@H]2c1ccccc1OCCO,inactive: 1.03
12,COC(=O)[C@@]12CCC(C)(C)C[C@@H]1[C@@H]1C(=O)C=C3[C@]4(C)C=C(C#N)C(=O)C(C)(C)[C@H]4CC[C@]3(C)[C@@]1(C)CC2,inactive: 0.981
13,COc1ccc(NC(=O)Nc2ccc3c(c2)C(=O)N([C@@H](C)CO)C[C@H](C)[C@@H](CN(C)S(=O)(=O)c2ccc(C)cc2)OCCCC[C@@H](C)O3)cc1,inactive: 1.02
14,C[C@@H]1CCCCO[C@@H](CN(C)C(=O)Nc2ccc(F)cc2)[C@H](C)CN([C@@H](C)CO)C(=O)c2cc(NC(=O)c3ccccc3)ccc2O1,inactive: 1.01
15,Cc1noc(C)c1NC(=O)Nc1ccc2c(c1)C(=O)N([C@@H](C)CO)C[C@H](C)[C@H](CN(C)S(=O)(=O)c1cn(C)cn1)O2,inactive: 0.996
16,C[C@@H]1CN([C@H](C)CO)C(=O)c2cc(NS(=O)(=O)c3ccc(Cl)cc3)ccc2O[C@@H](C)CCCCO[C@@H]1CN(C)S(=O)(=O)c1ccc(F)cc1,inactive: 1.02
17,CC(C)NC(=O)Nc1ccc2c(c1)C(=O)N([C@H](C)CO)C[C@@H](C)[C@H](CN(C)S(=O)(=O)c1cn(C)cn1)OCCCC[C@H](C)O2,inactive: 0.962
18,C/C=C1\[C@H](O[C@@H]2O[C@H](CO)[C@@H](O)[C@H](O)[C@H]2O)OC=C(C(=O)OC)[C@H]1CC(=O)OC[C@H]1O[C@@H](OCCc2ccc(O)cc2)[C@H](O)[C@@H](O)[C@@H]1OC(=O)C[C@@H]1C(C(=O)OC)=CO[C@@H](O[C@@H]2O[C@H](CO)[C@@H](O)[C@H](O)[C@H]2O)/C1=C\C,inactive: 1.03
